Where two headings read alike, the source gives them in different places. Results are given in words; binding and its absence hold for the method and conditions named. For some assays here: In cells and extracts the contact can be indirect. Some binding calls cover weakened binding; strength is not graded here. Tags and fused reporters may be left off the sequences shown. One block for each molecule: values may come before it.
Experiments:
[1] = target: T1, BD-BP (B…US/KNAT1 fused to the DNA-binding domain of GAL4) (Arabidopsis thaliana) (UniProt P46639); test: two-hybrid; GAL4 AD (pGADT7) and BD (pGBKT7) fusions co-transformed into S. cerevisiae AH109; growth on SD/-Trp/-Leu/-His/-Ade dropout medium
T1 sequence: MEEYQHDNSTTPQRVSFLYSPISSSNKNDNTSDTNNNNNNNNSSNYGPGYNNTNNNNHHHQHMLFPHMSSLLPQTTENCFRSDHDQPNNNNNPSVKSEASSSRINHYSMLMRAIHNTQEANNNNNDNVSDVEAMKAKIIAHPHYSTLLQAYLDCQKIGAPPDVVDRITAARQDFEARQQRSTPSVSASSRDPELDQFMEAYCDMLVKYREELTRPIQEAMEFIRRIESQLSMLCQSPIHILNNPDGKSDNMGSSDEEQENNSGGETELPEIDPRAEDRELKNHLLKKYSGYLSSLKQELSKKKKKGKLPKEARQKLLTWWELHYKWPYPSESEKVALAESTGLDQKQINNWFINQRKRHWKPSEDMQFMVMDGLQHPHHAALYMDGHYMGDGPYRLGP

Sequences of proteins named here, by UniProt entry; tags and fusion partners are left off. A change or cut given only in a name is not applied to a line headed by its entry.
UniProt P14713: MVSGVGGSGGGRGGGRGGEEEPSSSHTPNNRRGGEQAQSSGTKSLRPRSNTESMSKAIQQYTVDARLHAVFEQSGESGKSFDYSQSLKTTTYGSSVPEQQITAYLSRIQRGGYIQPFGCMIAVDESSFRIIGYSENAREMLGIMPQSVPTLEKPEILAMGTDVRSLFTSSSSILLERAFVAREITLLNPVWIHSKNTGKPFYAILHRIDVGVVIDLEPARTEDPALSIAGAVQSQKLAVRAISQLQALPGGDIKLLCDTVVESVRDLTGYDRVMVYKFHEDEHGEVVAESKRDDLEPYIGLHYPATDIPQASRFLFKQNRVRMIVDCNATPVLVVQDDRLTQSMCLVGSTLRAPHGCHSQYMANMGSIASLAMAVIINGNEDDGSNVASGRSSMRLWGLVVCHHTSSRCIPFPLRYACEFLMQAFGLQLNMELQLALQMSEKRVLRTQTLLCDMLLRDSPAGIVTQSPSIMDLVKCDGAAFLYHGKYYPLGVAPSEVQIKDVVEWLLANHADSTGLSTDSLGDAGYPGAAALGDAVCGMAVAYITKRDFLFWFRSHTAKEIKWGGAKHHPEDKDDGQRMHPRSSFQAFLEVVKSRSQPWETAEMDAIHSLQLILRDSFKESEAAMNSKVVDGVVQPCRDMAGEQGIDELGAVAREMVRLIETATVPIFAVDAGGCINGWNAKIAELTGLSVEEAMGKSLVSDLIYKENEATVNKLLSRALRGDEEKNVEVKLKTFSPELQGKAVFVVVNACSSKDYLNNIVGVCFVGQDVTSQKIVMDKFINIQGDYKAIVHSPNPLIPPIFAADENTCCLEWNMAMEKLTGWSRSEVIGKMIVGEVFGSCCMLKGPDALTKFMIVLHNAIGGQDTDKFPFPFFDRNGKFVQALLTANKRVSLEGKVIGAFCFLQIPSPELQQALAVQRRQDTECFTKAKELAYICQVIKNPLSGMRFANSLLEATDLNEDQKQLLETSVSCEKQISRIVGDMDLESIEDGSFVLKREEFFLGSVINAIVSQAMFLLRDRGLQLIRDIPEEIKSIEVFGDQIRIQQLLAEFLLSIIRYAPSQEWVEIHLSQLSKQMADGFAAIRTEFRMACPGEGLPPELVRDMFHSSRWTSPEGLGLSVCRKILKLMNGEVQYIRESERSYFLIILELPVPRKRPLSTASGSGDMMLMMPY

[2] = target: T2, BP-nLUC (BP fused to the N terminus of luciferase) (Arabidopsis thaliana) (UniProt P46639); test: split reporter; firefly luciferase complementation imaging (LCI); nLUC and cLUC fusions co-expressed in Nicotiana benthamiana leaves by Agrobacterium GV3101, 2 days at 22°C
T2 sequence: T1 sequence

[3] = target: T3, BP-GUS (BP fused to GUS, 35S:BP-GUS transgenic line) (Arabidopsis thaliana) (UniProt P46639); test: co-IP; total protein of imbibed 35S:BP-GUS seeds treated with FR or FR/R and kept 24 h in darkness; immunoprecipitated with anti-GUS antibody and protein A agarose at 4°C, blotted with anti-phyB antibody
T3 sequence: T1 sequence

[4] = target: T1, BD-BP (B…US/KNAT1 fused to the DNA-binding domain of GAL4) (Arabidopsis thaliana); test: two-hybrid; GAL4 AD (pGADT7) and BD (pGBKT7) fusions co-transformed into S. cerevisiae AH109; growth on SD/-Trp/-Leu/-His/-Ade dropout medium; remark: listed apart in the source
[5] = target: T2, BP-nLUC (BP fused to the N terminus of luciferase) (Arabidopsis thaliana); test: split reporter; firefly luciferase complementation imaging (LCI); nLUC and cLUC fusions co-expressed in Nicotiana benthamiana leaves by Agrobacterium GV3101, 2 days at 22°C; remark: listed apart in the source
[6] = target: T4, BD-PIF1 (Phytochrome-Interacting Factor 1) (Arabidopsis thaliana) (UniProt Q8GZM7); test: two-hybrid; GAL4 AD (pGADT7) and BD (pGBKT7) fusions co-transformed into S. cerevisiae AH109; growth on SD/-Trp/-Leu/-His/-Ade dropout medium
T4 sequence: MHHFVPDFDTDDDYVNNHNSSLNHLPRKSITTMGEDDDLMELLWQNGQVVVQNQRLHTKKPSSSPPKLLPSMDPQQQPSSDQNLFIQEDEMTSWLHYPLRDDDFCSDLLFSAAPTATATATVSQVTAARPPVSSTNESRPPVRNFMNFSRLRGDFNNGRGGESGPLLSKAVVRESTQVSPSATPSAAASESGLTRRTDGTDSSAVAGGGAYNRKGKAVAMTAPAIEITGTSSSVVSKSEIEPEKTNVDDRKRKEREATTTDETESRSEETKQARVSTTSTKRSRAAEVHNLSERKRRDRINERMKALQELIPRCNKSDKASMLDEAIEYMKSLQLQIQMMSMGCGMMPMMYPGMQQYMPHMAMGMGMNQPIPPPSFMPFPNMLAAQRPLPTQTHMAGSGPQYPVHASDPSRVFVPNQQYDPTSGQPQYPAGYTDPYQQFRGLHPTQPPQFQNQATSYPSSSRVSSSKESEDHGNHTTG

binding [1]: binds
Molecule: AD-phyB (phytochrome B fused to the activation domain of GAL4) (from UniProt P14713 1-1172)

binding [1]: no binding
Molecule: C terminus of phyB (600-1172 aa) fused to AD (from UniProt P14713 600-1172) (domain or fragment)

binding [1]: binds
Molecule: N terminus of phyB (1-650 aa) fused to AD (from UniProt P14713 1-650) (domain or fragment)

binding [2]: binds
Molecule: phyB-cLUC (phyB fused to the C terminus of luciferase) (from UniProt P14713 1-1172)

binding [3]: binds
Molecule: phytochrome B (phyB), endogenous in imbibed seeds (from UniProt P14713 1-1172)

binding [4]: binds
B1: BD-BP (B…US/KNAT1 fused to the DNA-binding domain of GAL4) (protein, UniProt P46639 1-398)
chain: T1 sequence

binding [5]: binds
B2: BP-nLUC (BP fused to the N terminus of luciferase) (protein, UniProt P46639 1-398)
chain: T1 sequence

binding [6]: no binding
B3: AD-BP (protein, UniProt P46639 1-398)
chain: T1 sequence

— paper PMC12785155, “Phytochrome B stabilizes the KNOX transcription factor BP/KNAT1 to promote light-initiated seed germination in Arabidopsis thaliana”
